From paper PMC4336329 (PLoS ONE, 2015) come the findings set out here.

Each structure is given as a SMILES string. The whole screen tested about 310,000 compounds, of which about 14,000 (4.5%) showed an effect of 50% or more. The effect is printed as a negative number. The list shows a part of the results.
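Also: peak tail current of the secondary pulse compared with the same well before compound.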

human ether-à-go-go-related gene (hERG) potassium channel, sequence (Q12809 whole entry, looked up): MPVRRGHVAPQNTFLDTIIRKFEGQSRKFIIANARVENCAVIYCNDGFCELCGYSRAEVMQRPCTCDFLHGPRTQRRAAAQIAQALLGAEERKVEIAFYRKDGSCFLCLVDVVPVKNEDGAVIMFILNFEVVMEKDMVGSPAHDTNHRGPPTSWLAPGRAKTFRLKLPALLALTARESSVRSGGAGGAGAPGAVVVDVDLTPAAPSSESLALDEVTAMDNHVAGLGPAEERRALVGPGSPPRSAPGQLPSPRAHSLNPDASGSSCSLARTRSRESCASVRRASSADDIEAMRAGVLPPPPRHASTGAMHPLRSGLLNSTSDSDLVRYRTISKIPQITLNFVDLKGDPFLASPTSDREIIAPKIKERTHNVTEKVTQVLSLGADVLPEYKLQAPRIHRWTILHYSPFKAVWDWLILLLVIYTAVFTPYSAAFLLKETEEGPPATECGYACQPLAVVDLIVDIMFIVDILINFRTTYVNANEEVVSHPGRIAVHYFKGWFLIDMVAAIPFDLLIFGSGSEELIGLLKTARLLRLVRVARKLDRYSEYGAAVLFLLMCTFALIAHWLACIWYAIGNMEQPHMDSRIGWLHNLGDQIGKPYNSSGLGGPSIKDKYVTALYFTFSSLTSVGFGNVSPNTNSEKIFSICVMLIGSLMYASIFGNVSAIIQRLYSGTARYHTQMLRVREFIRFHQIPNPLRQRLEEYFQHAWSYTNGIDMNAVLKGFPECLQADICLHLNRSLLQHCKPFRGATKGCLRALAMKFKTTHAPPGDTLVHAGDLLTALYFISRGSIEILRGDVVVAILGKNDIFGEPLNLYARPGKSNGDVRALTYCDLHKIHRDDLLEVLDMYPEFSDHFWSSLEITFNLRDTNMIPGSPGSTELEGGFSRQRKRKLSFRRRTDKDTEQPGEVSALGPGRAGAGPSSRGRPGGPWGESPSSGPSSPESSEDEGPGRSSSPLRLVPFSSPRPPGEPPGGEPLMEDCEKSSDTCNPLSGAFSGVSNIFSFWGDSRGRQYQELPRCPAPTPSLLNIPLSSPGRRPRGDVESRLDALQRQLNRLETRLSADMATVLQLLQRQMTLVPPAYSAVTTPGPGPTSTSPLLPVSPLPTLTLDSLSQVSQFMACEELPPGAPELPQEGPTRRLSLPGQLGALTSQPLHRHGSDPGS

The assay addresses human ether-à-go-go-related gene (hERG) potassium channel (human, UniProt Q12809). The assay is described as follows: primary screen, population patch clamp on CHO cells stably expressing hERG.
Turning to `Cc1cccc(C(=O)N2CCc3ccccc3C2)c1[N+](=O)[O-]`, the “hERG current change (%, negative = inhibition) at 10uM” value is on record as -0.48%.
For `CCCCn1c2c(c(=N)c3c1CCC3)CCC2.I`, the “hERG current change (%, negative = inhibition) at 10uM” value is on record as -2.48%.
With `COc1ccc(C(=O)N2CCCCC2)cc1S(=O)(=O)Nc1cccc(C(=O)O)c1` the figure was 6.94%; with `Cc1ccc(SCC(=O)Nc2ccc(N3CCN(c4ccccc4)CC3)c(F)c2)cc1`, 10.3%; with `COc1cc(/C=C/C(=O)OCC(=O)N(C)Cc2ccccc2)ccc1O`, 10%.
Take `COc1ccc(-c2nc(CS(=O)(=O)CC(=O)NCCc3ccc(C)cc3)c(C)o2)cc1`: the “hERG current change (%, negative = inhibition) at 10uM” value is given as 3.98%.
For `Cc1sc2ncnc(Nc3ccccc3)c2c1C`, the “hERG current change (%, negative = inhibition) at 10uM” value came out at 2.79%.
With `Cc1nc2c(C(=O)NCCC3=CCCCC3)c[nH]n2c(=O)c1Cl` the figure was 9.25%; with `COc1ccc(OCc2nnc(SCC(=O)Nc3cccc(Cl)c3)o2)cc1`, 10.8%; with `CC(Oc1cccc([N+](=O)[O-])c1)C(=O)NCCC1=CCCCC1` (stereo not drawn), -25.8%.
For the compound `O=C(c1ccc(F)cc1)N1CCC(C(=O)N2CCN(Cc3ccc4c(c3)OCO4)CC2)CC1`, the “hERG current change (%, negative = inhibition) at 10uM” value was -10.5%.
With `Cc1cc(C(=O)CSc2nnnn2-c2ccc(O)cc2)c(C)n1Cc1ccc2c(c1)OCO2` the figure was -6.93%; with `S=C(Nc1cccnc1)N1CCN(c2ccccc2Cl)CC1`, 0.024%.
Consider `CSc1nnc(CNC(=O)c2ccccc2)n1-c1cccc(C)c1`, for which the “hERG current change (%, negative = inhibition) at 10uM” value is listed as -6.07%.
Regarding `Cc1ccc(NC(=O)COC(=O)/C=C/c2cccc(Cl)c2)cc1S(=O)(=O)N1CCOCC1`, the “hERG current change (%, negative = inhibition) at 10uM” value turned out to be 7.37%.
For the compound `O=C(CCn1cnc2ccccc2c1=O)Nc1nc(-c2ccc(Br)cc2)cs1`, the “hERG current change (%, negative = inhibition) at 10uM” value was found to be 11.3%.
Regarding `O=C(COc1ncnc2c(Cl)cc(Cl)cc12)NCCC1=CCCCC1`, the “hERG current change (%, negative = inhibition) at 10uM” value amounted to 12.4%.
For the compound `CC1CC(=O)NN=C1c1ccc(N)c([N+](=O)[O-])c1` (stereo not drawn), the “hERG current change (%, negative = inhibition) at 10uM” value was determined as 1.43%.
In the case of `Cc1ccc2cc(C=C(C#N)C#N)c(Cl)nc2c1`, the “hERG current change (%, negative = inhibition) at 10uM” value was -0.312%.
Turning to `Cn1c(=O)c2c(nc(NCc3ccc4c(c3)OCO4)n2Cc2ccccc2F)n(C)c1=O`, the “hERG current change (%, negative = inhibition) at 10uM” value is -8.84%.
With `CCOC(=O)N1CCN(c2nnc(-c3ccc(C)cc3)c3ccccc23)CC1`, the “hERG current change (%, negative = inhibition) at 10uM” value is -70.1%.
With `Cc1ccc(-c2nnc(SCC(=O)NC3CCS(=O)(=O)C3)nc2-c2ccc(C)cc2)cc1` (stereo not drawn) the figure was 7.47%.
With `Cc1[nH]c(C)c(S(=O)(=O)N2CCCCC2)c1C(=O)N1CCCC1` the figure was 12%.
For `COc1cccc(CN2CCNC(=O)C2CC(=O)NC2Cc3ccccc3C2)c1` (stereo not drawn), the “hERG current change (%, negative = inhibition) at 10uM” value is listed as -20.8%.
